Measured values taken from patent publication US20190367516A1 (Bayer Pharma Aktiengesellschaft, priority 2015, published 2019).

These compounds were tested against T1, human M2 receptor (Homo sapiens, UniProt P08172). Details: read-out: Efficiency, M2-GIRK1/4 activation test; boosting of the acetylcholine effect at an EC20 acetylcholine concentration.
T1 sequence (P08172 1-466): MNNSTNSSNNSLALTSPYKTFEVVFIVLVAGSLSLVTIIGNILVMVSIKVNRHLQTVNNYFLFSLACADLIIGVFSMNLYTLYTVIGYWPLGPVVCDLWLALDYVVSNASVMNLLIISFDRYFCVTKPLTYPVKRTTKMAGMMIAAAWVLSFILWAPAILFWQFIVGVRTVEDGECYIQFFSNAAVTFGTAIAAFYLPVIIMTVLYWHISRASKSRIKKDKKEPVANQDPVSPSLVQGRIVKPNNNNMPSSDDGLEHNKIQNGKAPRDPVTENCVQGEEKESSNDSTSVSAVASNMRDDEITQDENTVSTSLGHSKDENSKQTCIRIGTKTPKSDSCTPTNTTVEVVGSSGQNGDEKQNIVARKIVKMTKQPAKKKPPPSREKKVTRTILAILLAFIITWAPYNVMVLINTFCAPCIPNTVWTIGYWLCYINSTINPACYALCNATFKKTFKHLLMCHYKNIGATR

Which Emax does the source give for `CC[C@@H](NC(=O)c1cn(-c2ccc(F)cc2F)c2nc(N3CCC4(C3)CC4(F)F)ccc2c1=O)C(F)(F)F` (mixture of isomers) [Example 29, 7-(1,1-Difluoro-5-azaspiro[2.4]hept-5-yl)-1-(2,4-difluorophenyl)-4-oxo-N-[(2R)-1,1,1-trifluorobutan-2-yl]-1,4-dihydro-1,8-naphthyridine-3-carboxamide (diastereomer mixture)] here?
Its Emax is 95.3%.

For `CC[C@@H](NC(=O)c1cn(-c2ccc(F)cc2F)c2nc(N3CCC(C)(F)C3)ccc2c1=O)C(F)(F)F` (mixture of isomers) [Example 30, 1-(2,4-Difluorophenyl)-7-(3-fluoro-3-methylpyrrolidin-1-yl)-4-oxo-N-[(2R)-1,1,1-trifluorobutan-2-yl]-1,4-dihydro-1,8-naphthyridine-3-carboxamide (diastereomer mixture)], which Emax is on record?
Its Emax is 93.3%.

With `CC[C@@H](NC(=O)c1cn(-c2ccc(F)cc2F)c2nc(N3CCC(O)(O)C(F)C3)ccc2c1=O)C(F)(F)F` (mixture of isomers) [Example 34, 1-(2,4-Difluorophenyl)-7-[3-fluoro-4,4-dihydroxypiperidin-1-yl]-4-oxo-N-[(2R)-1,1,1-trifluorobutan-2-yl]-1,4-dihydro-1,8-naphthyridine-3-carboxamide (diastereomer mixture)] as the compound, how does the Emax read?
The Emax was 99.7%.

How did the Emax turn out when `CC[C@@H](NC(=O)c1cn(-c2ccc(F)cc2F)c2nc(N3CCC(C)(OC)C3)ccc2c1=O)C(F)(F)F` (mixture of isomers) [Example 191, 1-(2,4-Difluorophenyl)-7-[3-methoxy-3-methylpyrrolidin-1-yl]-4-oxo-N-[(2R)-1,1,1-trifluorobutan-2-yl]-1,4-dihydro-1,8-naphthyridine-3-carboxamide] was run?
The Emax was 85.3%.

Which Emax does the source give for `O=C(NC1(C(F)(F)F)CCOC1)c1cn(-c2ccc(F)cc2F)c2nc(N3C[C@@H](O)CC3=O)ccc2c1=O` (mixture of isomers) [Example 238, 1-(2,4-Difluorophenyl)-7-[(4S)-4-hydroxy-2-oxopyrrolidin-1-yl]-4-oxo-N-[3-(trifluoromethyl)tetrahydrofuran-3-yl]-1,4-dihydro-1,8-naphthyridine-3-carboxamide] here?
The Emax was 92.3%.

`CC[C@@H](NC(=O)c1cn(-c2ccc(F)cc2F)c2nc(N3CC(C)OC3=O)ccc2c1=O)C(F)(F)F` (mixture of isomers) [Example 266, 1-(2,4-Difluorophenyl)-7-[5-methyl-2-oxo-1,3-oxazolidin-3-yl]-4-oxo-N-[(2R)-1,1,1-trifluorobutan-2-yl]-1,4-dihydro-1,8-naphthyridine-3-carboxamide] was tested. Which Emax did it give?
Its Emax is 100%.

With `O=C(NC(c1cccc(F)c1)C(F)(F)F)c1cn(-c2ccc(F)cc2F)c2nc(N3C[C@@H](O)CC3=O)ccc2c1=O` (mixture of isomers) [Example 272, 1-(2,4-Difluorophenyl)-7-[(4S)-4-hydroxy-2-oxopyrrolidin-1-yl]-4-oxo-N-[2,2,2-trifluoro-1-(3-fluorophenyl)ethyl]-1,4-dihydro-1,8-naphthyridine-3-carboxamide] as the compound, how does the Emax read?
Its Emax is 98%.

Which Emax does the source give for `O=C(NC(c1ccc(F)cc1)C(F)(F)F)c1cn(-c2ccc(F)cc2F)c2nc(N3C[C@@H](O)CC3=O)ccc2c1=O` (mixture of isomers) [Example 273, 1-(2,4-Difluorophenyl)-7-[(4S)-4-hydroxy-2-oxopyrrolidin-1-yl]-4-oxo-N-[2,2,2-trifluoro-1-(4-fluorophenyl)ethyl]-1,4-dihydro-1,8-naphthyridine-3-carboxamide] here?
Its Emax is 100%.

With `O=C(NC(c1cccc(Cl)c1)C(F)(F)F)c1cn(-c2ccc(F)cc2F)c2nc(N3C[C@@H](O)CC3=O)ccc2c1=O` (mixture of isomers) [Example 274, N-[1-(3-Chlorophenyl)-2,2,2-trifluoroethyl]-1-(2,4-difluorophenyl)-7-[(4S)-4-hydroxy-2-oxopyrrolidin-1-yl]-4-oxo-1,4-dihydro-1,8-naphthyridine-3-carboxamide] as the compound, how does the Emax read?
Its Emax is 99.8%.

For `O=C(NC(C1CC1)C(F)(F)F)c1cn(-c2ccccc2Cl)c2nc(N3C[C@@H](O)CC3=O)ccc2c1=O` (mixture of isomers) [Example 279, 1-(2-Chlorophenyl)-N-[1-cyclopropyl-2,2,2-trifluoroethyl]-7-[(4S)-4-hydroxy-2-oxopyrrolidin-1-yl]-4-oxo-1,4-dihydro-1,8-naphthyridine-3-carboxamide], which Emax is on record?
Its Emax is 92.5%.

For `CC1(F)CCN(c2ccc3c(=O)c(C(=O)NC45CC6CC(CC(C6)C4)C5)cn(-c4ccc(F)cc4F)c3n2)C1` (racemic) [Example 9, rac-1-(2,4-Difluorophenyl)-7-(3-fluoro-3-methylpyrrolidin-1-yl)-4-oxo-N-(tricyclo[3.3.1.1^3,7]dec-1-yl)-1,4-dihydro-1,8-naphthyridine-3-carboxamide], which Emax is on record?
The Emax was 96.5%.

For `O=C(NC12CC3CC(CC(C3)C1)C2)c1cn(-c2ccc(F)cc2F)c2nc(N3CCCC(O)C3)ccc2c1=O` (racemic) [Example 14, rac-1-(2,4-Difluorophenyl)-7-(3-hydroxypiperidin-1-yl)-4-oxo-N-(tricyclo[3.3.1.1^3,7]dec-1-yl)-1,4-dihydro-1,8-naphthyridine-3-carboxamide], which Emax is on record?
Its Emax is 97.7%.

For `CCC(NC(=O)c1cn(-c2ccc(F)cc2F)c2nc(N3CCN(C(=O)OC)CC3)ccc2c1=O)C(F)(F)F` (racemic) [Example 23, rac-Methyl 4-{8-(2,4-difluorophenyl)-5-oxo-6-[(1,1,1-trifluorobutan-2-yl)carbamoyl]-5,8-dihydro-1,8-naphthyridin-2-yl}piperazine-1-carboxylate], which Emax is on record?
Its Emax is 99.3%.

With `CCC(NC(=O)c1cn(-c2ccc(F)cc2F)c2nc(N3CC(CO)C3)ccc2c1=O)C(F)(F)F` (racemic) [Example 26, rac-1-(2,4-Difluorophenyl)-7-[3-(hydroxymethyl)azetidin-1-yl]-4-oxo-N-[1,1,1-trifluorobutan-2-yl]-1,4-dihydro-1,8-naphthyridine-3-carboxamide] as the compound, how does the Emax read?
The Emax was 97%.

How did the Emax turn out when `CC(CC(F)(F)F)NC(=O)c1cn(-c2ccc(F)cc2F)c2nc(N(C)C)ccc2c1=O` (racemic) [Example 46, rac-1-(2,4-Difluorophenyl)-7-(dimethylamino)-4-oxo-N-[4,4,4-trifluorobutan-2-yl]-1,4-dihydro-1,8-naphthyridine-3-carboxamide] was run?
The Emax was 98.7%.

With `CN(C)c1ccc2c(=O)c(C(=O)NC(c3ccccc3Cl)C(F)(F)F)cn(-c3ccc(F)cc3F)c2n1` (racemic) [Example 48, rac-N-[1-(2-Chlorophenyl)-2,2,2-trifluoroethyl]-1-(2,4-difluorophenyl)-7-(dimethylamino)-4-oxo-1,4-dihydro-1,8-naphthyridine-3-carboxamide] as the compound, how does the Emax read?
The Emax was 94.8%.

For `CN(C)c1ccc2c(=O)c(C(=O)NC(c3c(Cl)cccc3Cl)C(F)(F)F)cn(-c3ccc(F)cc3F)c2n1` (racemic) [Example 56, rac-N-[1-(2,6-Dichlorophenyl)-2,2,2-trifluoroethyl]-1-(2,4-difluorophenyl)-7-(dimethylamino)-4-oxo-1,4-dihydro-1,8-naphthyridine-3-carboxamide], which Emax is on record?
The Emax was 100%.

Which Emax does the source give for `CCC(NC(=O)c1cn(-c2ccc(F)cc2F)c2nc(N3CCC(F)(F)C3)ccc2c1=O)C(F)(F)F` (racemic) [Example 74, rac-1-(2,4-Difluorophenyl)-7-(3,3-difluoropyrrolidin-1-yl)-4-oxo-N-[1,1,1-trifluorobutan-2-yl]-1,4-dihydro-1,8-naphthyridine-3-carboxamide] here?
Its Emax is 87%.

How did the Emax turn out when `CCCC(NC(=O)c1cn(-c2ccc(F)cc2F)c2nc(N3CCC(F)(F)C3)ccc2c1=O)C(F)(F)F` (racemic) [Example 76, rac-1-(2,4-Difluorophenyl)-7-(3,3-difluoropyrrolidin-1-yl)-4-oxo-N-[1,1,1-trifluoropentan-2-yl]-1,4-dihydro-1,8-naphthyridine-3-carboxamide] was run?
Its Emax is 96%.

With `CCC(NC(=O)c1cn(-c2ccc(F)cc2F)c2nc(NCCF)ccc2c1=O)C(F)(F)F` (racemic) [Example 85, rac-1-(2,4-Difluorophenyl)-7-[(2-fluoroethyl)amino]-4-oxo-N-[1,1,1-trifluorobutan-2-yl]-1,4-dihydro-1,8-naphthyridine-3-carboxamide] as the compound, how does the Emax read?
Its Emax is 98.5%.

How did the Emax turn out when `CCCC(NC(=O)c1cn(-c2ccc(F)cc2F)c2nc(NCCF)ccc2c1=O)C(F)(F)F` (racemic) [Example 86, rac-1-(2,4-Difluorophenyl)-7-[(2-fluoroethyl)amino]-4-oxo-N-[(2R)-1,1,1-trifluoropentan-2-yl]-1,4-dihydro-1,8-naphthyridine-3-carboxamide] was run?
Its Emax is 94.5%.

For `CC(C)CC(NC(=O)c1cn(-c2ccc(F)cc2F)c2nc(NCC(F)(F)F)ccc2c1=O)C(F)(F)F` (racemic) [Example 95, rac-1-(2,4-Difluorophenyl)-4-oxo-7-[(2,2,2-trifluoroethyl)amino]-N-[1,1,1-trifluoro-4-methylpentan-2-yl]-1,4-dihydro-1,8-naphthyridine-3-carboxamide], which Emax is on record?
The Emax was 90%.

For `CC(NC(=O)c1cn(-c2ccc(F)cc2F)c2nc(N(C)CC(F)(F)F)ccc2c1=O)C(F)(F)F` (racemic) [Example 99, rac-1-(2,4-Difluorophenyl)-7-[methyl(2,2,2-trifluoroethyl)amino]-4-oxo-N-[1,1,1-trifluoropropan-2-yl]-1,4-dihydro-1,8-naphthyridine-3-carboxamide], which Emax is on record?
The Emax was 92.7%.

`CCC(NC(=O)c1cn(-c2ccc(F)cc2F)c2nc(N(C)CC(F)(F)F)ccc2c1=O)C(F)(F)F` (racemic) [Example 100] was tested. Which Emax did it give?
The Emax was 96.3%.
